According to PubChem BioAssay (NCI):
Several values for one entry are separate records, joined by “and”; a condition that tells them apart may be missing. Equal values may be shown once.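 Exposure lasted 48 hours, with cells grown in 96-well plates and compounds tested at five concentrations. Here, GI50 denotes the concentration required for 50% inhibition of growth. At the TGI there is no net growth.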 Activity calls are given as the source filed them. Cut-off read from the data, not from the text of the source: active = GI50 below about 0.43 µM; inactive = the rest.

Tested on: NCI-H322M lung
Assay: DTP human tumour cell line panel, 48 h

Q: What does the source list for `COc1ccc(/C=C(\C#N)c2ccc(OC)cc2)cc1`?
A: GI50: > 100 µM; TGI: > 100 µM

Q: `NC1(C(=O)O)CCCC1C(=O)O` (centres undefined) was tested. Which TGI did it give?
A: The TGI was > 100 µM.

Q: With `CC(C)(/C=N\O)NO` as the molecule, how does the TGI read?
A: The TGI was > 10 µM.

Q: With `O=C(O)CC(O)(c1ccccc1C(=O)O)c1cccc2ccccc12` (centres undefined) as the molecule, how does the TGI read?
A: Its TGI is > 100 µM.

Q: What does the source list for `CCCCNCC(O)c1cc2c(Cl)cc(Cl)cc2c2cc(C(F)(F)F)ccc12` (centres undefined)?
A: GI50: 1.59 µM; TGI: 3.13 µM

Q: With `Cc1nc2cc([N+](=O)[O-])ccc2c(NCCCN(C)C)c1C` as the molecule, how does the TGI read?
A: The TGI was 35.7 µM.

Q: Which TGI does the source give for `CN(C)c1ccc(/C=C/c2nc3ccccc3s2)cc1` here?
A: Its TGI is > 100 µM.

Q: For `CC(=O)N1CCc2[nH]c3ccccc3c2CC1`, which TGI is on record?
A: Its TGI is > 100 µM.

Q: For `CC(=O)OC1COC(N2CCc3ccccc32)C(OC(C)=O)C1OC(C)=O` (centres undefined), which TGI is on record?
A: Its TGI is > 100 µM.

Q: Which TGI does the source give for `NC(N)=NS(=O)(=O)c1ccc(Nc2c3ccccc3nc3c(C(=O)NNCCO)cccc23)cc1` here?
A: The TGI was > 1 µM.

Q: With `c1ccc(CNCCN2CCNCC2)nc1` as the molecule, how does the TGI read?
A: The TGI was > 100 µM.

Q: How did the GI50 turn out when `COc1ccc(/C=C/c2nnc(/C=C/c3ccc(OC)c(OC)c3)o2)cc1OC` was run?
A: Its GI50 is 14.4 µM.

Q: What about the TGI of the same molecule?
A: Its TGI is > 100 µM.

Q: With `CC(C)c1cc(C(=O)N2Cc3ccc(CN4CCN(C)CC4)cc3C2)c(O)cc1O` as the molecule, how does the GI50 read?
A: The GI50 was 11 µM and 1.8 µM.

Q: And the TGI?
A: The TGI was > 100 µM and 71.9 µM.

Q: How did the TGI turn out when `CC(C)CCNc1ncnc2[nH]ncc12` was run?
A: The TGI was > 100 µM.

Q: With `CC(=O)c1sc2c(c1OC(=O)c1ccc(Cl)cc1)c(=O)n(-c1ccccc1)c(=S)n2-c1ccccc1` as the molecule, how does the TGI read?
A: The TGI was > 29.7 µM.

Q: How did the GI50 turn out when `COc1cc(/C=N/Nc2ncnc3[nH]ncc23)ccc1O` was run?
A: Its GI50 is > 21.1 µM.

Q: What about the TGI of the same molecule?
A: Its TGI is > 25 µM.

Q: How did the TGI turn out when `CCOC(=O)NC1C2CC(=O)C(O2)C1OCc1ccccc1` (centres undefined) was run?
A: The TGI was > 100 µM.

Q: `COC(=O)C(C(=O)C(=O)Nc1nc2ccc([N+](=O)[O-])cc2s1)c1nc2ccc(Cl)cc2[nH]c1=O` (centres undefined) was tested. Which TGI did it give?
A: Its TGI is > 100 µM.

Q: With `Cc1ccc(-c2c(C#N)[n+](=O)c3cc(Cl)c(Cl)cc3n2[O-])cc1` as the molecule, how does the GI50 read?
A: Its GI50 is 17 µM.

Q: What about the TGI of the same molecule?
A: Its TGI is 33.8 µM.

Q: `COc1ccc(-c2cc(-c3ccccc3)nc(/N=C\c3ccccc3)n2)c(O)c1` was tested. Which TGI did it give?
A: Its TGI is > 100 µM.

Q: For `Clc1ccc(CCC(Cn2ccnc2)Sc2c(Cl)cccc2Cl)cc1` (centres undefined), which GI50 is on record?
A: The GI50 was 10.6 µM.

Q: What about the TGI of the same molecule?
A: Its TGI is 22.9 µM.

Q: `O=C1Nc2ccccc2/C1=C/C(=N/c1nnc(-c2ccccc2)s1)c1ccccc1` was tested. Which GI50 did it give?
A: Its GI50 is 12.7 µM.

Q: What about the TGI of the same molecule?
A: The TGI was 27 µM.

Q: `CCOc1ccccc1NC(=O)CC1Sc2ccccc2NC1=O` (centres undefined) was tested. Which TGI did it give?
A: The TGI was > 100 µM.

Q: How did the GI50 turn out when `CCCC(c1nnnn1C1CCCCC1)N1CCN(C(=O)c2ccco2)CC1` (centres undefined) was run?
A: The GI50 was > 100 µM.

Q: What about the TGI of the same molecule?
A: Its TGI is > 100 µM.

Q: How did the TGI turn out when `C/C(=N\NC(=O)Nc1ccccc1Cl)c1ccc(O)cc1` was run?
A: Its TGI is > 100 µM.

Q: How did the TGI turn out when `C[C@H]1COC(c2ccccn2)=N1` was run?
A: The TGI was > 100 µM.

Q: How did the TGI turn out when `CCC/C=C/C=C/C(=O)OC1C(C)C2(O)C3C=C(C)C(=O)C3CC(COC(C)=O)=CC2C2C(C)(C)C12OC(=O)C(C)C` (centres undefined) was run?
A: The TGI was > 100 µM.

Q: Which TGI does the source give for `Cc1ccc(Nc2nc3nc[nH]c3c(=O)[nH]2)cc1CO` here?
A: Its TGI is 37.1 µM.

Q: What does the source list for `COc1cc(-c2n[nH]nc2-c2ccc3c(c2)OCCO3)cc(OC)c1OC`?
A: GI50: 0.0673 µM; TGI: > 100 µM

Q: For `C=C1C(=O)O[C@H]2[C@H]1CC/C(COC(=O)CCCCCCC(=O)OC/C1=C/CC[C@@]3(C)O[C@H]3[C@H]3OC(=O)C(=C)[C@@H]3CC1)=C\CC[C@@]1(C)O[C@@H]21`, which GI50 is on record?
A: Its GI50 is 13.3 µM.

Q: What about the TGI of the same molecule?
A: Its TGI is 27.8 µM.

Q: Which GI50 does the source give for `O=S1CCN(Cc2ccc(-c3ccc4ncnc(Nc5ccc(OCc6cccc(F)c6)c(Cl)c5)c4c3)o2)CC1` here?
A: The GI50 was 0.0622 µM.

Q: And the TGI?
A: Its TGI is > 25 µM.

Q: For `O=c1[nH]cnc2c(COCCCO)c[nH]c12`, which TGI is on record?
A: The TGI was > 100 µM.

Q: `COC(=O)c1nc2c(C)c(O)c(Oc3c(C)c(O)c(O)c([C@H](C)CCC=C(C)C)c3O)c([C@H](C)CCC=C(C)C)c2o1` was tested. Which outcome did it give?
A: The outcome was “inactive”.

Q: Which TGI does the source give for `COc1ccccc1N1C(=O)/C(=C\c2cc(OC)c(OC)c(OC)c2)SC1c1ccccc1` (centres undefined) here?
A: Its TGI is > 100 µM.

Q: For `COc1ccc(CCn2c3c(c4c(O)cccc42)C(=O)c2ccccc2-3)cc1OC`, which GI50 is on record?
A: The GI50 was 37.2 µM.

Q: And the TGI?
A: The TGI was > 100 µM.

Q: Which GI50 does the source give for `COC1=CC(c2ccc[nH]2)=N/C1=C\c1[nH]c(C)c(C(=O)CCCCC(=O)NCc2ccccc2)c1C` here?
A: The GI50 was 13.1 µM.

Q: What about the TGI of the same molecule?
A: The TGI was 27.7 µM.

Q: How did the TGI turn out when `COC(=O)/C(C#N)=C(\Nc1ccccc1)N1CCCC1` was run?
A: Its TGI is > 100 µM.

Q: `Oc1ccc(-c2nn3c(CCCCCCCCc4nnc5sc(-c6ccc(O)cc6)nn45)nnc3s2)cc1` was tested. Which TGI did it give?
A: The TGI was > 100 µM.

Q: For `N#Cc1nn(C(N)=O)c(N)c1C#N`, which TGI is on record?
A: The TGI was > 100 µM.

Q: With `S=C(/C=C1\SC(=Nc2ccccc2)C(=Nc2ccccc2)N1c1ccccc1)Nc1ccccc1` as the molecule, how does the TGI read?
A: Its TGI is > 100 µM.

Q: Which TGI does the source give for `CCC(Cc1cnc2nc(N)nc(N)c2n1)c1ccc(C(=O)NC(CCC(=O)O)C(=O)O)cc1` (centres undefined) here?
A: The TGI was > 100 µM.

Q: `Cc1c2ccccc2cc2nc3ccccc3n12` was tested. Which TGI did it give?
A: Its TGI is > 10 µM.

Q: How did the TGI turn out when `CCOC(=O)NC(Nc1ncn(C(NC(=O)OCC)(C(F)(F)F)C(F)(F)F)n1)(C(F)(F)F)C(F)(F)F` was run?
A: The TGI was > 100 µM.

Q: Which TGI does the source give for `CC(C)C1CNC2N1C(=O)C2(C)OCc1ccccc1` (centres undefined) here?
A: Its TGI is > 100 µM.

Q: With `COc1ccc(NC(=S)N/N=C/c2cccc(C)n2)cc1` as the molecule, how does the TGI read?
A: Its TGI is > 100 µM.

Q: How did the GI50 turn out when `COc1ccc(C2CC(c3cc(Cl)c(C)cc3O)=NN2c2ccc(S(N)(=O)=O)cc2)cc1OC` (centres undefined) was run?
A: Its GI50 is 4.45 µM.

Q: What about the TGI of the same molecule?
A: Its TGI is 39.7 µM.

Q: For `CC(C)OC(=O)C1=C2c3ncccc3C(=O)N2[C@@H](Cl)[C@@H](Cl)[C@@H]1Cl`, which TGI is on record?
A: Its TGI is > 100 µM.

Q: Which TGI does the source give for `N=[N+]=NC1C(O)C(CO)OC1n1cnc2c(N)ncnc21` (centres undefined) here?
A: The TGI was > 100 µM.

Q: How did the TGI turn out when `OC1CCN(c2c3ccccc3nc3ccccc23)CC1` was run?
A: The TGI was 66.4 µM.
